{"source": "PubChem BioAssay AID686979", "about": "(National Center for Advancing Translational Sciences (NCATS), 2013)", "note": "In all, about 420,000 compounds went through this assay and about 50,000 (12%) were called active. This list was built around the results that the source calls inconclusive (neither active nor inactive); the mix of calls is not that of the screen. Calls follow the shape of the dose curve; as a rule, active = well fitted inhibition curve with a large enough effect; inconclusive = small, poorly fitted or top-dose-only effect; inactive = flat fitted curve, though single readings scatter. Potencies of inconclusive entries are left out as doubtful fits. % is scaled to controls: 0 for no effect and ±100 for the full control effect; potency is read from the fitted curve at half-maximal effect; tags tell the direction and shape of the fitted curve."}
{"experiment": "qHTS for Inhibitors of human tyrosyl-DNA phosphodiesterase 1 (TDP1): qHTS in cells in presence of CPT; also: nearly all actives have a fitted effect of over 55% in size", "conditions": "chicken DT40 Tdp1-/-;hTDP1 cells + 20 nM CPT, ATP luminescence, 48 h; activity change, negative = growth inhibition: at 46.2 µM (top of the series) unless noted", "method_in_brief": "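Chicken DT40 Tdp1-/- cells complemented with human TDP1, 400 cells/well, exposed to compounds plus 20 nM camptothecin for at least 48 h at 37 C; viability read as ATP content by CellTiter-Glo luminescence.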"}
{"smiles": "O=C(CCC(=O)N1CCCC1)Nc1nnc(C2CCCCC2)s1", "Potency": "inconclusive [inhibitor, single point]"}
{"smiles": "CC1C(=O)Nc2ccccc2N1C(=O)c1c(F)cccc1F", "note": "(stereo not drawn)", "Potency": "inactive"}
{"smiles": "N#Cc1ccc(Oc2nc(Nc3ccc(F)cc3)nc(N3CCCC3)n2)cc1", "Potency": "inconclusive [inhibitor, single point]"}
{"smiles": "CCOC(=O)c1c(C)[nH]c(CCC(=O)NCc2cc(OC)c(OC)c(OC)c2)c1C", "activity change, negative = growth inhibition": "inconclusive: -32.1% [inhibitor]"}
{"smiles": "COc1cc(-n2c(=O)c3ccccc3n(Cc3cccc(Cl)c3)c2=O)cc(OC)c1OC", "Potency": "inconclusive [inhibitor, partial curve]"}
{"smiles": "O=C(Nc1cccc(C(F)(F)F)c1)NC1CCN(S(=O)(=O)c2ccc(F)cc2)CC1", "Potency": "inconclusive [inhibitor, partial curve]"}
{"smiles": "CCc1ccc(C2=NN(CCC(=O)NC3CCCCCC3)C(=O)CC2)cc1", "Potency": "inconclusive [inhibitor, single point]"}
{"smiles": "C/C(=N\\NC(=S)NCc1ccccc1)c1ccc2ccccc2c1OC(F)F", "Potency": "inconclusive [inhibitor, partial curve, poor fit]"}
{"smiles": "Cc1ccc(C)c(Cn2c(=O)n(-c3ccccc3)c(=O)c3c4c(sc32)CCCC4)c1", "activity change, negative = growth inhibition": "inconclusive: -9.33% [inhibitor]"}
{"smiles": "C=CCOc1ccccc1CNCCCN1CCOCC1", "Potency": "inactive"}
{"smiles": "OCCC1CN(Cc2cccc(-c3ccco3)c2)CCN1Cc1ccsc1", "note": "(stereo not drawn)", "Potency": "inconclusive [inhibitor, single point]"}
{"smiles": "COc1ccc(CCN2C(=O)N(c3cccc(OC)c3)C(=O)C2CC(=O)Nc2ccccc2)cc1", "note": "(stereo not drawn)", "Potency": "active: 18.4 µM"}
{"smiles": "O=C(CN1CCc2ccccc2C1)Nc1ccccc1Cl", "Potency": "inactive"}
{"smiles": "CCOC(=O)c1ccc(Nc2cc(C)nc(-c3ccccc3)n2)cc1", "Potency": "active: 4.61 µM"}
{"smiles": "O=C(CCl)NCCNC(=O)c1cc(OCC(F)(F)F)ccc1OCC(F)(F)F", "Potency": "inconclusive [inhibitor, single point]"}
{"smiles": "COc1ccc(CNC(=O)CN2C(=O)CCn3nc(-c4cn(C)c5ccccc45)cc32)cc1", "Potency": "inconclusive [inhibitor, single point]"}
{"smiles": "O=[N+]([O-])c1ccc(NNC(=S)Nc2ccc(F)cc2)cc1", "Potency": "active: 4.61 µM"}
{"smiles": "O=C1C(C=NCCCN2CCCC2=O)=C(O)c2ccccc21", "Potency": "inactive"}
{"smiles": "Cc1[nH]c2ccc(C(=O)N3CCN(Cc4ccccc4)CC3)cc2c1C", "Potency": "inconclusive [inhibitor, full curve, poor fit]"}
{"smiles": "COc1ccc(C(C)(NC(C)=O)c2nc(-c3cccnc3)cs2)cc1", "note": "(stereo not drawn)", "Potency": "inconclusive [inhibitor, single point]"}
{"smiles": "CC1CCCN(CCOCCSc2ccccc2)C1", "note": "(stereo not drawn)", "Potency": "inconclusive [inhibitor, single point]"}
{"smiles": "COc1cc(OC)cc(C(=O)N/N=C/c2ccc(OC)c(COc3ccc(F)cc3)c2)c1", "Potency": "active: 2.31 µM"}
{"smiles": "CC(C(=O)NC1CCCC1)N(C(=O)Cn1nnc(-c2ccc(F)cc2)n1)c1ccccc1F", "note": "(stereo not drawn)", "Potency": "active: 23.1 µM"}
{"smiles": "CCOc1ccccc1CNC(=O)Cn1nc(C)c2c(C)n(-c3ccc(C)cc3)nc2c1=O", "Potency": "inconclusive [inhibitor, single point]"}
{"smiles": "Cc1ccc(CNC(=O)c2ccc(N3CCC4(CC3)CC(c3ccccc3)=NO4)c(NC(=O)c3c(Cl)cccc3Cl)c2)cc1", "Potency": "inactive"}
{"smiles": "CCC(C)C(NC(=O)OC(C)(C)C)C(=O)NC(C)C(N)=O", "note": "(stereo not drawn)", "Potency": "inactive"}
{"smiles": "COC(=O)c1cc(Cl)c(NC(=O)c2cc3ccccc3o2)cc1OC", "activity change, negative = growth inhibition": "inconclusive: -30.1% [inhibitor]"}
{"smiles": "O=C(Nc1ccc(F)cc1F)C1CCCN1S(=O)(=O)c1ccc(-c2ccc(=O)[nH]n2)s1", "note": "(stereo not drawn)", "Potency": "inconclusive [inhibitor, partial curve]"}
{"smiles": "CN1CCC(=O)N([C@H](CSc2ccccc2)Cc2ccccc2)CC1", "Potency": "inconclusive [inhibitor, single point]"}
{"smiles": "COc1cccc(C2CC(c3ccccc3)=NN2S(=O)(=O)c2ccc(C)cc2)c1OC", "note": "(stereo not drawn)", "Potency": "inconclusive [inhibitor, single point]"}
{"smiles": "CCOC(=O)C1=C(C)n2c(s/c(=C3\\C(=O)Nc4ccccc43)c2=O)=NC1c1ccc(OC)cc1", "note": "(stereo not drawn)", "Potency": "inconclusive [inhibitor, single point]"}
{"smiles": "CN(CC(=O)NCC(=O)Nc1ccc(F)c(F)c1F)C1CCS(=O)(=O)C1", "note": "(stereo not drawn)", "Potency": "inactive"}
{"smiles": "COc1ccccc1NC(=O)Nc1nc(C(N)Cc2ccccc2)cs1", "note": "(stereo not drawn)", "Potency": "active: 23.1 µM"}
{"smiles": "Fc1ccc(N2CCN(C(=S)NCc3ccco3)CC2)cc1", "Potency": "inconclusive [inhibitor, single point]"}
{"smiles": "COc1ccc(-c2c(C(=O)c3ccccc3)[nH]c(N)c2C(=O)c2ccc(Br)cc2)cc1OC", "Potency": "inconclusive [inhibitor, single point]"}
{"smiles": "Cc1ccc(C(=O)c2c3ccc([N+](=O)[O-])cc3[n+]([O-])n2CCC(N)=O)cc1", "Potency": "active: 5.8 µM"}
{"smiles": "Nc1ccc(Oc2ncccn2)cc1", "Potency": "inconclusive [inhibitor, single point]"}
{"smiles": "O=C(CCc1nc2ccccc2c(=O)[nH]1)OCC(=O)c1cccc(Cl)c1", "Potency": "inactive"}
{"smiles": "N#CCc1ccc(NS(=O)(=O)c2ccc(N3CCCC3=O)cc2)cc1", "Potency": "active: 13 µM"}
{"smiles": "CC(C)(C)OC(=O)[C@H](Cc1ccccc1)NC(=O)c1nc[nH]c1C(=O)N1CCN(C(=O)OC(C)(C)C)CC1", "Potency": "inconclusive [inhibitor, single point]"}
{"smiles": "CCCOc1ccc(/C=N/NC(=O)c2nnn(-c3nonc3N)c2-c2cccs2)cc1OC", "Potency": "inconclusive [inhibitor, single point]"}
{"smiles": "O=C(CC(C(=O)O)n1ccnc1)c1ccc(Cl)cc1", "note": "(stereo not drawn)", "Potency": "active: 7.08 µM"}
{"smiles": "CC1=C(C(=O)Nc2ccc(C)cc2C)C(c2cccc(Cl)c2)n2nc(C(=O)OC(C)C)nc2N1", "note": "(stereo not drawn)", "Potency": "inconclusive [inhibitor, single point]"}
{"smiles": "CC[N+]1(CC(=O)c2ccc(I)cc2)CCCCC1", "Potency": "inconclusive [inhibitor, single point]"}
{"smiles": "O=C(NCCCn1ccnc1)c1cc2cc([N+](=O)[O-])ccc2oc1=O", "Potency": "inconclusive [inhibitor, single point]"}
{"smiles": "CC(NC(=O)Cc1ccc(S(=O)(=O)N2CCOCC2)s1)c1ccc(Cl)c(Cl)c1", "note": "(stereo not drawn)", "Potency": "inconclusive [inhibitor, single point]"}
{"smiles": "Cc1cc(C)c(NC(=S)N2CCN(c3ccc([N+](=O)[O-])cn3)CC2)cc1C", "Potency": "inconclusive [inhibitor, single point]"}
{"smiles": "O=C(c1cccc([N+](=O)[O-])c1)N1CCN(c2ccc(Nc3ccccc3)nn2)CC1", "Potency": "inconclusive [inhibitor, single point]"}
{"smiles": "Cc1ccc(C(=O)N/N=C/c2c(O)ccc3ccccc23)cn1", "Potency": "active: 3.26 µM"}
{"smiles": "CCOC(=O)c1c(S(=O)(=O)N2CCC(C(=O)Nc3ccc(C)c(Cl)c3)CC2)c(C)n(C)c1C", "Potency": "inactive"}
{"smiles": "O=C(Nc1cc(F)cc(F)c1)c1ccc(NCCCN2CCCCCC2)c([N+](=O)[O-])c1", "Potency": "inconclusive [inhibitor, single point]"}
{"smiles": "Cc1ccc(OCC(=O)Nc2ccc(N3CCN(C(=O)c4ccco4)CC3)cc2)c(C)c1", "Potency": "active: 16.4 µM"}
{"smiles": "Cc1cc(OCC(=O)OCC(=O)NCc2ccco2)ccc1Cl", "Potency": "inactive"}
{"smiles": "Clc1ccc(CSc2nnc(-c3cccnc3)n2Cc2ccco2)c(Cl)c1", "Potency": "inconclusive [inhibitor, partial curve, poor fit]"}
{"smiles": "CC(=O)C[C@@H]1OC[C@H](C(C)C)N1S(=O)(=O)c1ccc(C)cc1", "Potency": "inconclusive [inhibitor, single point]"}
{"smiles": "O=C(O)C1CC=CCC1C(=O)Nc1ccccc1Cl", "note": "(stereo not drawn)", "Potency": "inconclusive [inhibitor, single point]"}
{"smiles": "Cc1ccc2[nH]c(=O)c(CN(CCCN3CCOCC3)C(=O)Nc3ccc(Cl)cc3)cc2c1", "Potency": "active: 14.6 µM"}
{"smiles": "Cc1ccc2nc(-c3cccc(NC(=O)c4ccco4)c3)[nH]c2c1", "Potency": "inconclusive [inhibitor, single point]"}
{"smiles": "CCN(CC)C(=O)[C@H]1CC(CC(=O)NC(C)(C)C)C(=O)N2CCc3c([nH]c4ccc(OC)cc34)[C@]12C", "note": "(stereo partly drawn)", "Potency": "inactive"}
{"smiles": "CCOc1ccc(NC(=O)CCCn2c(C)c3cnn(-c4ccccc4)c(=O)c3c2C)cc1", "Potency": "inconclusive [inhibitor, partial curve]"}
{"smiles": "CCC(=O)NC(=S)N1CCN(c2ccc([N+](=O)[O-])cc2Cl)CC1", "Potency": "inconclusive [inhibitor, partial curve, poor fit]"}
{"smiles": "N#CCCn1cc(C(=O)Nc2ccccc2Br)c(-c2cccs2)n1", "Potency": "inconclusive [inhibitor, single point]"}
{"smiles": "CCn1nc(C)c2c(-c3ccccc3)cc(=O)n(C(C)C(=O)NCCc3ccc(Cl)cc3)c21", "note": "(stereo not drawn)", "Potency": "inconclusive [inhibitor, single point]"}
{"smiles": "O=C(c1ccc([N+](=O)[O-])s1)N1CCN(c2cccc(Cl)c2)CC1", "Potency": "active: 20.6 µM"}
{"smiles": "O=C(Nc1ccc(S(=O)(=O)N2CCCCC2)cc1)C1CCCN(C(=O)c2ccc(Cl)cc2)C1", "note": "(stereo not drawn)", "Potency": "inconclusive [inhibitor, single point]"}
{"smiles": "O=S(=O)(c1ccc(-c2cnc(C3CC3)o2)cc1)N1CCN(c2ccc(F)cc2)CC1", "Potency": "active: 0.92 µM"}
{"smiles": "O=C1CCCC(=O)N1c1ccc(O)cc1", "Potency": "inactive"}
{"smiles": "O=C(c1ccncc1)N1CCC2(CCN(Cc3cc(C(F)(F)F)cc(C(F)(F)F)c3)CC2)CC1", "Potency": "inconclusive [inhibitor, single point]"}
